# Reference: PubChem BioAssay AID902 (National Center for Advancing Translational Sciences (NCATS), 2007)
# Several values for one entry are separate records, joined by “and”; a condition that tells them apart may be missing. Equal entries are not always repeated. In all, about 130,000 compounds went through this assay and about 1,900 (1.5%) were called active. This list was built around the results that the source calls inconclusive (neither active nor inactive); the mix of calls is not that of the screen. Calls come from the whole dose curve; as a rule, active = well fitted cell-killing curve with a large enough effect; inconclusive = small, poorly fitted or top-dose-only effect; inactive = no such curve, though single readings can be large or run the other way. Where the call is inconclusive, the potency comes from a doubtful curve fit.
# Assay: qHTS Screen for Compounds that Selectively Target Cancer Cells with p53 Mutations: Cytotoxicity of p53ts Cells at the Nonpermissive Temperature; note: nearly all actives have a fitted effect of over 55% in size
# Details: H1299-p53A138V viability at 39C, ATP luminescence, 24 h; activity change, negative = cell killing: at 46.1 µM (top of the series)
# Excerpt: NIH Chemical Genomics Center [NCGC] NIH Molecular Libraries Screening Centers Network [MLSCN] MLSCN Grant: 1 X01 MH079844-01 Assay Submitter (PI): Dr. SUN, YI, University of Michigan NCGC Assay Overview: Synthetic Lethal Screen for Compounds to Kill Cancer Cells with p53 Mutation. Tumor suppressor gene p53 serves as a major cellular barrier against tumorigenesis. […] The goal of this screening is to identify small molecule probes that selectively kill cancer cells with mutations in p53. This screening was carried out using two lines of H1299 lung cancer cells. The H1299-p53 A138V line express a temperature sensitive p53 mutant (p53ts) in which the mutant p53 protein (A138V) is in the mutant confirmation when grown at 39C (the nonpermissive temperature) and in the wild type conformation when grown at 32C (the permissive temperature). A H1299-neo line (p53 null) grown at both 39C and 32C were used as counter-screens to filter out false positive associated with temperature shifting. The small molecular compounds that selectively target mutant p53-containing cancer cells were selected as candidate probes for further study. A cytotoxicity assay based on the measurement of ATP contents in cells was used in this screen. Concentration-responses of all the compounds in the library collection were determined in qHTS using the cell lines and temperature conditions as above.
# NCGC Assay Protocol Summary: Both the H1299-p53A138V and H1299-neo cell lines were provided by Dr.Yi Sun, a PI at the University Michigan. The cells were maintained and cultured at 37C. The resuspended frozen cells were used to plate the cells in the 1536-well assay plates at a density of 600 cells per well in 5 ul medium. The assay plates with the cells were incubated at 37C for 16 to 30 hours before the experiments. The library compounds in DMSO solution were added to the cells in assay plates and incubated 24 hours at 39C (for mutant p53 conformation) or 32C (for normal p53 conformation as control). An ATP_lite assay kit (PerkinElmer) was used to determine the cell viability. Tomaxifen (100uM) was used as the positive control for cell killing. Data were normalized to the controls for basal activity (DMSO only) and 100% killing (100uM tamoxifen). AC50 values were determined from concentration-response data modeled with the standard Hill equation. P53 assay protocol: 1. Reagent; 5 uL H1299-p53A138V or H1299-neo cell cells/well 2. Time; overnight; 37C incubation 3. Compounds; 23 nL; 5.9 nM to 46 uM 4. Controls; 23 nL; Tamoxifen 100 uM 5. Time; 24 hr; 39C incubation 6. Reagent; 3 uL; ATP_Lite reagent 7. Time; 20 min; Room Temperature 8. Detection; Luminescence; Viewlux plate reader Keywords: p53, synthetic lethal, cancer, cell viability, cytotoxicity, H1299 cell line, luminescence, MLSMR, MLSCN, NIH Roadmap, qHTS, NCGC
# % is set by controls: 0 for no effect and ±100 for the full control effect; potency is the fitted concentration of half-maximal effect; tags give direction and shape of the fitted curve.
SMILES,Potency,"activity change, negative = cell killing"
CCOc1ccc(C(=O)Nc2cccc(C)n2)cc1,"inconclusive: 10 µM [cytotoxic, partial curve]",
Cc1cc(-c2ccc(C)c(S(=O)(=O)NCC3CCN(Cc4ccc(F)cc4)CC3)c2)on1,"inconclusive: 12.6 µM [cytotoxic, single point]",
O=C(NCC(c1ccc2c(c1)OCO2)N1CCOCC1)C(=O)Nc1cccc(Cl)c1 (stereo not drawn),"inconclusive: 31.6 µM [cytotoxic, single point]",
Cc1cc(C)cc(NC(=O)CCCn2c3ccccc3c(=O)c3ccccc32)c1,"inconclusive: 10 µM [cytotoxic, partial curve]",
CC1(C)N=C(N)N=C(N)N1CCCCc1ccccc1,"inconclusive: 5.01 µM [cytotoxic, single point]",
CCc1ccccc1NC(=O)CN1C(=O)c2ccccc2Sc2ncccc21,inactive,
CCOc1ccc(N2CC(c3nc4ccccc4n3Cc3ccccc3F)CC2=O)cc1 (stereo not drawn),"inconclusive: 5.62 µM [cytotoxic, single point]",
COc1cccc(OC)c1C(=O)Nc1cccc(-c2cn3ccsc3n2)c1,"inconclusive: 10 µM [cytotoxic, partial curve]",
NC(=O)CCCCn1ccc(NC(N)=NCC(F)(F)F)n1,inactive,
Cc1cccc(CS(=O)(=O)Cc2ccc(C(=O)NCCc3ccccc3)o2)c1,"inconclusive: 2.51 µM [cytotoxic, partial curve, poor fit]",
COC(=O)C1=C(C)N(Cc2ccccc2)[C@]23O[C@](C(=O)OC)(C(=O)N2C1c1ccccc1)C1CCCC(=O)C13 (stereo partly drawn),,inactive: -0.57% [at 9.22 µM] and inactive: -7.15% [at 9.22 µM]
CCOC(=O)c1scc(-c2ccc(C)cc2)c1S(=O)(=O)N1CCN(c2ccccc2F)CC1,inactive,
CCN(CCNC(=O)C1CCN(Cc2nc(-c3cccc(Cl)c3)oc2C)CC1)c1ccccc1,active: 15.8 µM,
Cc1ccccc1NC(=O)Cn1c(=O)n(Cc2ccccc2)c(=O)c2sc3ccccc3c21,"inconclusive: 2.51 µM [cytotoxic, full curve, poor fit]",
O=C(NCc1ccc(F)cc1)c1cnc(N2CCCCC2)c2ccccc12,inactive,
COc1ccc(NC(=O)Cn2c(=O)n(-c3cccc(C(F)(F)F)c3)c(=O)c3sccc32)cc1,"inconclusive: 31.6 µM [cytotoxic, single point]",
Cc1[nH]c2ccccc2c1C1(O)C(=O)N(Cc2ccccc2Cl)c2ccccc21 (stereo not drawn),"inconclusive: 12.6 µM [cytotoxic, single point]",
COc1cccc(NC(=O)c2cccc(OC)c2OC)c1,"inconclusive: 12.6 µM [cytotoxic, single point]",
Cc1cc2c(c(=O)o1)[C@H](O)[C@H]1O[C@@H]1C2=O,,inactive: 7.75% [at 9.22 µM]
O=C(CSc1nnc(-c2ccc(Cl)cc2)o1)Nc1ccc(F)cc1,"inconclusive: 31.6 µM [cytotoxic, single point]",
Cc1cccc(NC(=O)c2ccc(F)c(S(=O)(=O)N3CCC4(CC3)OCCO4)c2)c1,"inconclusive: 6.31 µM [cytotoxic, full curve, poor fit]",
O=C(CSCc1ccco1)c1cccs1,inactive,

SMILES,Potency,"activity change, negative = cell killing"
C=CCc1cccc(/C=N/NC(=O)CCCNc2ccc(C)cc2)c1O,"inconclusive: 11.2 µM [cytotoxic, partial curve, poor fit]",
COc1ccc(C(=O)Nc2nnc(C)s2)cc1,active: 12.6 µM,
Cc1ccccc1CSc1ncc(Cl)c(C(=O)Nc2nc3ccc(F)cc3s2)n1,"inconclusive: 15.8 µM [cytotoxic, partial curve, poor fit]",
COc1cccc2[nH]c3c(N4CCCC(C)C4)ncnc3c12 (stereo not drawn),"inconclusive: 31.6 µM [cytotoxic, single point]",
Cc1cnc(CNc2nc(-c3ccc(N(C)C)cc3)nc3ccccc23)cn1,active: 10 µM,
Cc1cc(NCCCn2ccnc2)n2ncc(-c3ccccc3)c2n1,active: 3.98 µM,
COc1ccccc1CN1CCC(CNC(=O)c2cnn(-c3ccccc3Cl)c2C2CCN(C(=O)OC(C)(C)C)CC2)CC1,"inconclusive: 7.94 µM [cytotoxic, full curve]",
Cc1ccc(-n2ncc3c(N4CCCCCC4)ncnc32)cc1Cl,"inconclusive: 10 µM [cytotoxic, partial curve, poor fit]",
COc1ccccc1CNC(=O)CCc1c(C)nc2cc(-c3ccc(Cl)cc3)nn2c1C,"inconclusive: 10 µM [cytotoxic, partial curve]",
O=C(c1cnc(N2CCN(c3ncccn3)CC2)c2ccccc12)N1CCN(c2ncccn2)CC1,"inconclusive: 25.1 µM [cytotoxic, partial curve]",
COc1ccc(/C=N/NC(=S)Nc2cccc(C(=O)O)c2)cc1OC,"inconclusive: 17.8 µM [cytotoxic, single point]",
Cc1ccc(CNC(=O)Nc2ccccc2)cc1,"inconclusive: 10 µM [cytotoxic, partial curve]",
CCn1c(COc2ccc(Cl)cc2Cl)nc2ccccc21,"inconclusive: 10 µM [cytotoxic, partial curve]",
O=C(COC(=O)C1CCC1)NCc1ccccc1Cl,inactive,
O=C1c2c(O)ccc([N+](=O)[O-])c2C(=O)c2c([N+](=O)[O-])ccc(O)c21,active: 15.8 µM,
CCN1CCN(C(=O)NC(C(=O)NC2C(=O)N3C(C(=O)O)=C(CSc4nnnn4C)CSC23)c2ccc(O)cc2)C(=O)C1=O (stereo not drawn),inactive,
Cc1cccc(NC(=O)c2sc3ncnc(N(C)C4CCCCC4)c3c2C)c1C,,inconclusive: -30.8% [cytotoxic]
CCCCOC(=O)c1c(C)oc2c1cc(NS(=O)(=O)c1cc(OC)ccc1OC)c1ccccc12,inactive,
c1ccc(CN2CCN(c3nc(-c4ccccc4)nc(-n4ccnc4)n3)CC2)cc1,"inconclusive: 12.6 µM [cytotoxic, single point]",
CC(C)(C)n1ncc2c(=O)n(CC(=O)NCc3ccccc3Cl)cnc21,inactive,
Cc1ccc2c(c1)N(C(=O)CCC(=O)NCc1cccc(F)c1)CC(C)O2 (stereo not drawn),inactive,
